These results are taken from the supplement of paper PMC11417369.

± gives the standard deviation of the averaged measurements. This is one part of the list.

The subject of this test is PfAP2-LT AP2 domain (GST-tagged). Nature of the test: gcPBM binding intensity (ln(normalized median fluorescence intensity)); higher = stronger DNA binding. Put shortly:
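An Agilent 4 × 180k array carrying primer-extended double-stranded 36-bp intergenic genomic probes and negative controls received GST-tagged P. falciparum DNA-binding domains expressed in E. coli, about 25 μg on average, for 1 h. The binding buffer contained 1× PBS, 1% milk, 0.2 mg/ml BSA, 0.5% salmon testes DNA and 0.03% Triton X-100. Binding intensity is the top Masliner-normalised natural-log median intensity across replicate spots of either probe orientation, read after Alexa488 anti-GST antibody staining and a 488 nm scan.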
On to “TTATATTATATATATATTATATATATGTATGCATAA [TGCATGCA_negctrl_site481]”, for which the “gcPBM binding intensity (ln)” value worked out at 8.72 ± 0.2.
The same measure for GGTTTGAATTTTTAAGTGCATATAACATAAATGAAA: 8.4 ± 0.43; for “AGATAGCTATTAAAAAGTACAAAAAAATATATATAT [XGTACX_site6289]”: 8.89 ± 0.46.
With “ATAAATACAGATATTACACACTTCTTATTCTAAGAA [CACACA_site5640]” the figure was 8.65 ± 0.45.
The same measure for “TATTTACAACAAATTTAATTATTTTTAACTTATAAA [GTGCAC_negctrl_site259]”: 8.06 ± 0.49.
As for “TATACAGGAATATTTTTACACACTAATAATTATAAA [CACACA_site8477]”, the “gcPBM binding intensity (ln)” value amounted to 8.73 ± 0.5.
With “TATTTTATATAAAGGTGTACTTATACAAAAATATAT [XGTACX_site7435]” the figure was 8.54 ± 0.43.
The same measure for “AAGTAATTTGTTGACACACACACACGCATACCTATA [CACACA_site7140]”: 9.81 ± 0.2.
The same measure for “TCCCAATTTCTATCCTGTACAGACATAAATATATAC [XGTACX_site5937]”: 8.8 ± 0.35; for “ATAAATCCATGTAACTGTACTTTTTTTTTTTTTTTT [XGTACX_site7373]”: 8.71 ± 0.35; for “ATAAAGATTAATAAAATAAAATTCCGCAAACATATA [CACACA_negctrl_site244]”: 8.71 ± 0.38.
On to “TTTTGAAATTTTTGTGTTTTTCCTTTTTATTTTATA [CACACA_negctrl_site1740]”, for which the “gcPBM binding intensity (ln)” value turned out to be 8.53 ± 0.47.
For “TTTTTTTTCTAAATTATATGAAAATATATGTTATGT [GTGCAC_negctrl_site85]”, the “gcPBM binding intensity (ln)” value was determined as 8.46 ± 0.38.
With “TACATAAACATTTATACACACATTATAAATACATAT [CACACA_site4386]” the figure was 9.03 ± 0.38; with “ATTTTCTATTTTATTTGTACGTAATTTAATTTTTTT [XGTACX_site3609]”, 8.96 ± 0.53.
Turning to “ACAATTTTAAAATGAACACACATGTTTTTCTTACTT [CACACA_site1014]”, the “gcPBM binding intensity (ln)” value worked out at 9.02 ± 0.52.
The same measure for “GCTCCTTTTACCATCGCACACGATAAAAAAAAATAA [CACACA_site3255]”: 8.7 ± 0.43.
The same measure for “ACAAATACTAACAACGCATGTAAGCCTACAATAAAT [TGCATGCA_site551]”: 9.1 ± 0.31.
With “AATGTAATATAAATATGTACATATAAACTATATATA [XGTACX_site6871]” the figure was 8.95 ± 0.41; with “ATTATATATATATATATATATATATATATATTATAT [CACACA_negctrl_site234]”, 9.17 ± 0.27.
“ACTTATGATTTATTTTGTACATATATACTATTCCTG [XGTACX_site5275]”: the “gcPBM binding intensity (ln)” value turned out to be 9.14 ± 0.52.
Take “GTTTTAAAACAAATATGTACACATAATATAGGAAAG [XGTACX_site1803]”: the “gcPBM binding intensity (ln)” value stood at 8.96 ± 0.43.
On to “TCCGTATAATTTTGCACACGAATATAAATTTGATAA [CACACA_site136]”, for which the “gcPBM binding intensity (ln)” value came out at 8.86 ± 0.33.
The same measure for “ATTATATCACTGTGTTGTACTTCTTATATAAAAATA [XGTACX_site2333]”: 8.69 ± 0.45; for “ACATATCGGGTGCATTAACACACATTTATTTGAATA [CACACA_site8736]”: 8.97 ± 0.48.
The same measure for “ATATTACACAGATATGCACACATTGTAGTTATTTAT [CACACA_site5454]”: 9.19 ± 0.38; for “AAAAAGGAAATTTACACACACATATAACATACATTA [CACACA_site7534]”: 9.4 ± 0.35.
As to “ATAAAAATAAAATGGACACACATATATACATATTTG [CACACA_site3277]”, the “gcPBM binding intensity (ln)” value came out at 9.08 ± 0.44.
With “AATTATAATAAATAACGTACAAAAAATAAATTATTT [XGTACX_site3627]” the figure was 8.73 ± 0.37; with “TATATATTCATGTGTACACACAAAAAAAAATAAAGT [CACACA_site2207]”, 9.59 ± 0.37; with “ATAAGCGAATATATATCACACACAAAAAAATCAGAC [CACACA_site8657]”, 9.56 ± 0.4.
Consider “TTTTTTTTTGATATTTGTACTTAAGTAAATATTATA [XGTACX_site3843]”, for which the “gcPBM binding intensity (ln)” value is 8.46 ± 0.45.
Regarding “TATCTTTTATAAGTGACACACATAAATATTTAAATT [CACACA_site833]”, the “gcPBM binding intensity (ln)” value is 8.59 ± 0.43.
In the case of “ATATTAGGGTCATGAACACACAAAAAAAAAAAAAAA [CACACA_site937]”, the “gcPBM binding intensity (ln)” value came to 8.93 ± 0.65.
The same measure for “GCTATCATATCATGTTGTACACAACCTCAAAATGAA [XGTACX_site8757]”: 8.74 ± 0.32.
For “TCATATTTACAAAAAGGTATTAATAAATAAAATATT [CACACA_negctrl_site259]”, the “gcPBM binding intensity (ln)” value came to 8.53 ± 0.42.
With “AATAAGTGTTGATTCTTAAAATGACCATATAATAAT [TGCATGCA_negctrl_site221]” the figure was 8.73 ± 0.41; with “CGTTTATTAAACTTGACACACACACCCCCACATATA [CACACA_site8151]”, 9.975 ± 0.064.
For the sequence “TATATATATATATATGCATGCCATATGATATATATA [TGCATGCA_site109]”, the “gcPBM binding intensity (ln)” value came to 9.71 ± 0.4.
With “AATCGATAACAATGTAGTACCAGAAAAATAAATATT [XGTACX_site8501]” the figure was 8.98 ± 0.5; with “TTTAATTCTTATATTTGTACAGATTCATAATTAAAT [XGTACX_site7465]”, 8.46 ± 0.4.
Take “TTAGTATATTTTTCCTGTACGTACTCAGATACAAAT [XGTACX_site7397]”: the “gcPBM binding intensity (ln)” value came to 8.79 ± 0.45.
For “TTAAATAATTTTTAATGTACATTAAATTTATTATTA [XGTACX_site261]”, the “gcPBM binding intensity (ln)” value is 8.38 ± 0.42.
Take “TACACATTATGTATCATACACACAAATAAATATATA [CACACA_site608]”: the “gcPBM binding intensity (ln)” value was found to be 9.21 ± 0.31.
